In PubChem BioAssay (NCATS):
Inconclusive results, whose numbers are uncertain, are shown with a selection of clear calls. Where the call is inconclusive, the potency comes from a doubtful curve fit. Activity calls are given as the source filed them. The call rests on the fitted dose curve; in most records, active means well fitted curve in the direction sought with a large enough effect; inconclusive means small, poorly fitted or top-dose-only effect, or another doubt; inactive means no such curve, though single readings can be large; an effect the other way counts as inactive or inconclusive.

How the values were obtained:
[1] = target: Rap guanine nucleotide exchange factor 3 (Homo sapiens) (UniProt O95398); assay: Confirmatory qHTS for antagonist of cAMP-regulated guanine nucleotide exchange factor 3 (EPAC1) (AID 1645880); conditions: EPAC1 Rap1B-BODIPY-GDP exchange, fluorescence; activity, negative = inhibition: at 115 µM (top of the series); further: nearly all actives have a fitted effect of over 55% in size;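 on activity, negative = inhibition: plate controls were DMSO only for no effect and full effect of the ATA control for full effect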
Chain of UniProt O95398 (O95398 whole entry, looked up): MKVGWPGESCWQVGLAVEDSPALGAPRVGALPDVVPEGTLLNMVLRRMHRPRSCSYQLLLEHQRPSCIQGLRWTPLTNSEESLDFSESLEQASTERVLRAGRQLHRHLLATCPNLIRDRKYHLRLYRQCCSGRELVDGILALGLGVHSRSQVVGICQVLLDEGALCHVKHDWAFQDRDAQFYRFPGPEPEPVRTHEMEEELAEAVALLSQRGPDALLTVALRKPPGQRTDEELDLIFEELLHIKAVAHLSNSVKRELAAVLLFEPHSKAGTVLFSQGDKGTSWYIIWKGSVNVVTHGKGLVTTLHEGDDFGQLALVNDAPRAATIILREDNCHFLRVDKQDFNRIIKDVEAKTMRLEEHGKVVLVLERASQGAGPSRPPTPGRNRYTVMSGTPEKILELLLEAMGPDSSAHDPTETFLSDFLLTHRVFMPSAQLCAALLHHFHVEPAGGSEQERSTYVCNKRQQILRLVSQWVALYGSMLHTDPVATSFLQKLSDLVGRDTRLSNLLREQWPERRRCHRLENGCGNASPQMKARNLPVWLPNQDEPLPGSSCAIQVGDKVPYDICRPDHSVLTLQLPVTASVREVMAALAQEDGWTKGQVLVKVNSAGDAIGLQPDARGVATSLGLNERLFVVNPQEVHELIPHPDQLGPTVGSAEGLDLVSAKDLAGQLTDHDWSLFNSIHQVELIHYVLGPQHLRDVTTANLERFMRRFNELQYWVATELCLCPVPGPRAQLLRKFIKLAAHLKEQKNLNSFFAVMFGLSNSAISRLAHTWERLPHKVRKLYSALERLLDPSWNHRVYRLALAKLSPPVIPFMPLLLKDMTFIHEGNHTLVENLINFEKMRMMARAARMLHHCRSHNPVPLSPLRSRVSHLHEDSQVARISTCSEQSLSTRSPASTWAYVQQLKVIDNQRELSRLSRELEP
Outline: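 Nucleotide exchange uses 100 nM EPAC1, 250 nM RAP1B-BODIPY-GDP and 50 uM GDP, with compounds in a concentration-titration series. After 5 min at room temperature, fluorescence (480 nm ex/540 nm em) is read every 5 min for 30 min. Data are normalized to control ATA and DMSO.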

[2] = target: Rap guanine nucleotide exchange factor 4 (Homo sapiens) (UniProt Q8WZA2); assay: Confirmatory qHTS for antagonist of cAMP-regulated guanine nucleotide exchange factor 4 (EPAC2) (AID 1645885); conditions: activity change, negative = inhibition: at 12.7 µM (top of the series) unless noted; further: nearly all actives have a fitted effect of over 25% in size; on activity change, negative = inhibition: on the % scale 0 is the no-effect control and ±100 the full control effect
Chain of UniProt Q8WZA2 (Q8WZA2 whole entry, looked up): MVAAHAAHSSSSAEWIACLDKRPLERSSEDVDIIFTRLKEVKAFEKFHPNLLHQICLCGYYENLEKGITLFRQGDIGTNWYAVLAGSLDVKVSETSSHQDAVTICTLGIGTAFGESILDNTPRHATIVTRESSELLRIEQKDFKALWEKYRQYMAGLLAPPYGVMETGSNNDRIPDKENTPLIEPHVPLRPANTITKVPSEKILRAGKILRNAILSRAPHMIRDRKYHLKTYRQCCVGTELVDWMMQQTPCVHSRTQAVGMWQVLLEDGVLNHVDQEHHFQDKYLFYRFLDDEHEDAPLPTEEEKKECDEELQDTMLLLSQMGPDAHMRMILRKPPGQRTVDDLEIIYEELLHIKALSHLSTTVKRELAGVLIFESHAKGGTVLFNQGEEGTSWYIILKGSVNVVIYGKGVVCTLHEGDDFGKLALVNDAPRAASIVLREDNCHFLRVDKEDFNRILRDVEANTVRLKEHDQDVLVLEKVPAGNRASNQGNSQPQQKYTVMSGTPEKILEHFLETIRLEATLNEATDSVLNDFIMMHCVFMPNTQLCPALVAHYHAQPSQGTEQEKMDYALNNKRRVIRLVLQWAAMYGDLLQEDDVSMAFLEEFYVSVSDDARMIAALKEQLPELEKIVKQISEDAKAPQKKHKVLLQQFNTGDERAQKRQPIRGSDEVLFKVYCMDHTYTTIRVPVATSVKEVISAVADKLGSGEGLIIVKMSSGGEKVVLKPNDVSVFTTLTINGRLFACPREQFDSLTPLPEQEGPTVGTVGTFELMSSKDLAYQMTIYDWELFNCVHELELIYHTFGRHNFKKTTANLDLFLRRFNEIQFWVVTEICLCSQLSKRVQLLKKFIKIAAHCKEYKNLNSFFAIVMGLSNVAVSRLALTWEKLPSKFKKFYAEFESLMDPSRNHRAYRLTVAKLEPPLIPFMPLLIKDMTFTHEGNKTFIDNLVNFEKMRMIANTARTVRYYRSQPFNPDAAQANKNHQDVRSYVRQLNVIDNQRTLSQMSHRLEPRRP

[3] = target: Rap guanine nucleotide exchange factor 3 (Homo sapiens) (UniProt O95398); assay: Counterscreen qHTS for agonist of cAMP-regulated guanine nucleotide exchange factor 3 (EPAC1) (AID 1645889); conditions: EPAC1 Rap1B-BODIPY-GDP exchange, fluorescence; activation: at 154 µM (top of the series) unless noted; further: nearly all actives have a fitted effect of over 40% in size; on activation: % of control where 0% means no effect
Outline: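 Rap1B-BODIPY-GDP 250 nM + GDP 50 uM; cpds 7-pt, final 9.74 nM–152 uM (activator mode) or from 7.32 nM upwards (inhibitor mode); RT; FI 480/540 nm at 5 and 30 min, then ± cAMP, reread.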
Potency means the concentration at half of the fitted maximal effect; tags describe the fitted curve by direction and shape.

Structure (SMILES) | Potency [1] | Potency [2] | activation [3] | Potency [3] | outcome [2]
CCOC(=O)c1c(NC(=O)CSc2nnnn2-c2ccccc2OCC)sc2c1CC(C)(C)NC2(C)C | inconclusive: 44.7 µM [inhibitor, partial curve] | inactive | inconclusive: 41.2% [activator] [at 30.8 µM] | – | –
Cc1ccc(-c2cn3nc(-c4ccccc4)c(-c4ccccc4)nc3n2)cc1 | inactive | inactive | – | inactive | –
O=C1C(=Cc2cn(-c3ccccc3)nc2-c2ccc(OCc3ccc(Cl)cc3)cc2)SC(=S)N1CCS(=O)(=O)O | inconclusive: 3.79 µM [inhibitor, full curve] | inconclusive: 95.3 µM [inhibitor, single point] | – | active: 50.1 µM | –
COCOCCn1cc(CN2CCS(=O)(=O)N(Cc3ccc(-c4ccccc4)cc3)C(CC(C)C)C2=O)nn1 (stereo unspecified) | inconclusive: 44.7 µM [inhibitor, partial curve, poor fit] | active: 3.01 µM | – | inconclusive: 7.94 µM [activator, partial curve, poor fit] | –
CC(=O)NC(C)(c1ccccc1)c1nc(-c2cc(F)cc(F)c2)cs1 (stereo unspecified) | inconclusive: 53.6 µM [inhibitor, partial curve] | inconclusive: 67.5 µM [inhibitor, partial curve] | – | inconclusive: 14.1 µM [activator, partial curve, poor fit] | –
COc1ccc(C(=O)c2ccc(Br)cc2)c2ccccc12 | inactive | inconclusive: 10.7 µM [inhibitor, full curve] | inconclusive: 31.4% [activator] | – | –
O=[N+]([O-])c1ccccc1O[C@@H]1O[C@H](CO)[C@H](O)[C@H](O)[C@H]1O | inactive | inconclusive: 19 µM [inhibitor, partial curve, poor fit] | inconclusive: 32.2% [activator] | – | –
COC(=O)c1ccccc1NC(=O)CN1C(=O)COc2ccccc21 | inactive | – | inconclusive: 75.4% [activator] | – | inactive [at 12.7 µM]
COc1ccc(/C=C(\NC(=O)c2cccs2)C(=O)Nc2ccc(C)cc2)cc1OC | active: 47.8 µM | inactive | – | inactive | –
COc1cc(/C=C/C(=O)c2ccc3c(c2)OCCO3)cc(Br)c1OCC(=O)N(C)C | inconclusive: 47.8 µM [inhibitor, partial curve] | inconclusive: 26.9 µM [inhibitor, partial curve, poor fit] | – | inconclusive: 20 µM [activator, single point] | –
COc1ccc(-c2nc3ccccc3nc2-c2ccccc2)cc1 | inconclusive: 95.3 µM [inhibitor, single point] | inconclusive: 15.1 µM [inhibitor, full curve] | – | inconclusive: 10 µM [activator, single point] | –
COc1ccc(N=C2NC(=O)S/C2=C\c2ccc(N(C)C)cc2)cc1 | inactive | inconclusive: 75.7 µM [inhibitor, partial curve, poor fit] | – | inactive | –
COc1cc2c3nnc(-c4ccccc4)c-3cn(Cc3ccc(F)cc3)c2cc1OC | inactive | inactive | – | inconclusive: 112 µM [activator, partial curve, poor fit] | –
CCc1noc(C)c1C(=O)N1CCCSC1=Nc1ccccc1Cl | inconclusive: 44.7 µM [inhibitor, partial curve, poor fit] | inactive | inactive: -1.65% [at 30.8 µM] | – | –
Cc1ccc(N(Cc2cccs2)C(=O)c2ccc(Br)o2)cc1 | inconclusive: 95.3 µM [inhibitor, partial curve, poor fit] | inactive | – | inconclusive: 10 µM [activator, partial curve, poor fit] | –
CC(Nc1ccc(Cl)cc1)c1cc(Cl)ccc1O (stereo unspecified) | inconclusive: 67.5 µM [inhibitor, partial curve] | inconclusive: 67.5 µM [inhibitor, partial curve] | – | inactive | –
CCc1noc(C)c1C(=O)Nc1nc2c(C)cc(C)cc2s1 | inconclusive: 30.1 µM [inhibitor, full curve, poor fit] | inconclusive: 95.3 µM [inhibitor, single point] | – | inconclusive: 14.1 µM [activator, single point] | –
